The shares of active, inactive and inconclusive entries below differ from those in the screen. Potencies of inconclusive entries are left out as doubtful fits. Active and inactive are the calls of the source. Calls come from the whole dose curve; as a rule, active = well fitted activation curve with a large enough effect; inconclusive = small, poorly fitted or top-dose-only effect; inactive = no such curve, though single readings can be large or run the other way.
molecular target: Rap guanine nucleotide exchange factor 3 (Homo sapiens) (UniProt O95398); assay: Confirmatory qHTS for agonist of cAMP-regulated guanine nucleotide exchange factor 3 (EPAC1) (AID 1645881); details: EPAC1 Rap1B BODIPY-GDP exchange fluorescence; activation: at 154 µM (top of the series), 100% = cAMP control response; note: nearly all actives have a fitted effect of over 75% in size;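 for activation: EPAC1 catalysed release of BODIPY-GDP from Rap1B seen as fluorescence loss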
Sequence of UniProt O95398 (O95398 whole entry, looked up): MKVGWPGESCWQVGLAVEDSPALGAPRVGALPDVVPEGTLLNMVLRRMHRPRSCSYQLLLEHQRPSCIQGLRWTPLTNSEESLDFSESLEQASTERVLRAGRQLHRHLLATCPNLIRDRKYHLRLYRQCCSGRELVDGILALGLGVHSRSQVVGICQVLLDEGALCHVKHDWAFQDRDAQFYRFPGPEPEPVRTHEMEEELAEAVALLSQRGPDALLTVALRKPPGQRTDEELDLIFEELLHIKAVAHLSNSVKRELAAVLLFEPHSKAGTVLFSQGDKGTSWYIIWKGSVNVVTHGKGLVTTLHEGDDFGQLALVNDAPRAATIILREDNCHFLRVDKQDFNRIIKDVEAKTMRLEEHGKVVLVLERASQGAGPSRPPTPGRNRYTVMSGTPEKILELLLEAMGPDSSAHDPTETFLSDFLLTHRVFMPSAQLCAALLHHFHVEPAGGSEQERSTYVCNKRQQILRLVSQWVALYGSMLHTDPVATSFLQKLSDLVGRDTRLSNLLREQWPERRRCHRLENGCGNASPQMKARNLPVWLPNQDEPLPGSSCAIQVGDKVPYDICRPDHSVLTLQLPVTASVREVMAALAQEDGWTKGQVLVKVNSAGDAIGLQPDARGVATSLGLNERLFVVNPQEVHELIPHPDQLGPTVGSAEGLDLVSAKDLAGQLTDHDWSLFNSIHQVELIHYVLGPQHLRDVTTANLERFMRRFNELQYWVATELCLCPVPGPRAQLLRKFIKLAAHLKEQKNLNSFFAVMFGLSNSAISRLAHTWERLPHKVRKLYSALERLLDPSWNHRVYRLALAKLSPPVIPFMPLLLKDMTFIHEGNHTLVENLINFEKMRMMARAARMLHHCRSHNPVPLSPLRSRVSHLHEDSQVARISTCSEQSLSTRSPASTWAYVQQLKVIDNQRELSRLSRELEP
Potency is the fitted concentration of half-maximal effect; tags give direction and shape of the fitted curve.

| SMILES | activation | Potency |
| --- | --- | --- |
| Cc1csc(N=Nc2ccc(N(C)C)cc2)[n+]1[O-] | inactive: -35.1% | – |
| COc1ccc(/C=C/C(=O)NC2CCS(=O)(=O)C2)cc1 (stereo not drawn) | inactive: -0.313% | – |
| O=S(=O)(c1ccc(Cl)c2ccccc12)N1CCCC1 | – | inconclusive [activator, partial curve, poor fit] |
| COc1cccc(/C(O)=C/c2nc3ccc(C(=O)NCCc4cccc(C)c4)cc3[nH]c2=O)c1 | – | inconclusive [activator, single point] |
| C=CCn1c(CSCc2ccc(Cl)cc2Cl)nnc1SCC(=O)Nc1ccc(C(=O)O)cc1 | inactive: -4.93% | – |
| CCCC[C@@H]1CNC(=O)C(=O)N1CCc1cccc(F)c1 | inactive: 6.91% | – |
| COc1ccccc1CNc1cc(C)nc2nc(-c3ccc(C)cc3)nn12 | – | inconclusive [activator, partial curve, poor fit] |
| COc1ccc(CN(C)C(=O)CC(c2ccccc2)c2ccccc2)cc1 | – | inconclusive [activator, partial curve, poor fit] |
| Cc1ccc(S(=O)(=O)N2CCN(C(=O)c3ccc4c(c3)OCO4)CC2)cc1 | – | inconclusive [activator, single point] |
| N#Cc1cc(Br)ccc1N=C1CCCN1c1ccccc1 | – | inconclusive [activator, partial curve, poor fit] |
| C=C1CCC(O)C/C1=C\C=C1/CCCC2(C)C1CCC2C(C)/C=C/C(C)C(C)C (stereo not drawn) | inactive: -2.69% | – |
| CCCCCC1CCC(c2ccc(C(N)=O)cc2)CC1 (stereo not drawn) | inactive: -2.6% | – |
| COC(=O)c1c(SC)nc2ccccc2c1OCc1cc(C)ccc1C | inactive: 22% | – |

Source: PubChem BioAssay (NCATS)
